From patent US20210147571A1, “MONOCLONAL ANTIBODY TARGETING HUMAN TUMOR STEM CELLS AND USE THEREOF” (Suzhou Bojuhua Biomedical Technology Co. Ltd, priority 2017, published 2021)

Legend:
[1] = test system: antigen protein in SNU-5, BGC-823, MHCC-97L, BEL7402 V13 total proteins; assay: Western Blotting of tumor cell total proteins; type: binding, human; details: primary antibody 2 ug/ml
Method: Total proteins of 4 kinds of Hetumomab target antigen-positive human tumor cells SNU-5, BGC-823, MHCC-97L, BEL7402 V13 were extracted by conventional methods, and the protein concentrations were quantified by a BCA kit. An appropriate amount of the protein sample (20 μg) was separated by SDS-polyacrylamide gel electrophoresis and transferred to a PVDF membrane using a semi-dry electroporator. The PVDF membrane was then placed in blocking solution (TBST/5% skimmed milk powder) and incubated on a horizontal shaker at room temperature for 1 h. […] The membrane was then rinsed 5 times with TBST for 5 min each. Then the secondary antibody (1:2000 to 1:5000 dilution) against human IgG Fc-HRP or against mouse IgG Fc-HRP was added accordingly and incubated at room temperature for 1 h. The membrane was then rinsed 3 times with TBST for 5 min each, and then rinsed with PBS 3 times. Visualization was conducted.

SNU-5 sphere cells = assay: sphere-forming inhibition (self-renewal); type: cell-based, human
Method: (§1) The main manifestation of the self-renewal ability of tumor stem cells is the ability to form spheres in serum-free medium, which is called asymmetric division, that is, when one cell divides into two daughter cells, one of the daughter cells maintains the same features as the parental cell, while the other daughter cell may continue to divide, forming normal daughter cells. […] And then Hetumomab (250 μg/mL) was used as the experimental group, and the PBS was used as a negative control group to incubate with the cells at 37° C. for 2 h, during which the cells were mixed with the antibody or the negative control once every half an hour. 500 cells in each group were inoculated into a semi-solid sphere medium (containing EGF, LIF, bFGF, etc.) containing 0.8% methylcellulose, and cultured in an ultra-low adhesion 24-well plate. 1-1.5 mL liquid medium was added every other day, and the number of spheres formed from the two groups was observed after 14 days.

MHCC-97L sphere cells = assay: sphere-forming inhibition (self-renewal); type: cell-based, human
Method: as §1

BGC-823 sphere cells = assay: sphere-forming inhibition (self-renewal); type: cell-based, human
Method: as §1

Bel7402-V13 sphere cells = assay: sphere-forming inhibition (self-renewal); type: cell-based, human
Method: as §1

[2] = test system: Hetumomab target antigen in liver, lung, gastric cancer tissue sections; assay: immunohistochemistry of antigen-positive and negative tissue sections; type: binding, human
MHCC97L cells = assay: flow immunofluorescence, positive cells in parental and sphere cells; type: binding, human
Method: (§2) The human liver cancer cell line Bel7402-V13 and MHCC97L cells were cultured for 5 days in a serum-free manner, and the Hetumomab^+ cells in the parental cells and in the cells from sphere culture were detected by viable cell flow fluorescence cytometry. […] That is, after serum-free culture, Hetumomab^+ cells of the liver cancer cell line were enriched.
(§3) As described above, four cell lines, SNU-5, BGC-823, MHCC-97L, and BEL7402 V13, were used to harvest both parental cells and tumor-stem-cell-rich sphere cells. […] The results are as follows:
(§4) According to the aforementioned method, four cell lines, SNU-5, BGC-823, MHCC-97L, and BEL7402 V13, were used to harvest both parental cells and tumor-stem-cell-rich sphere cells. […]

Bel7402-V13 cells = assay: as above; type: binding, human
Method: as §2, §3, §4

[3] = SNU-5, antibody 10 ug/ml, Table 27
[4] = SNU-5, antibody 10 ug/ml, Table 33
[5] = SNU-5, antibody 20 ug/ml, Table 27
[6] = SNU-5, antibody 20 ug/ml, Table 33
[7] = SNU-5, antibody 40 ug/ml, Table 27
[8] = SNU-5, antibody 40 ug/ml, Table 33
[9] = SNU-5, antibody 80 ug/ml, Table 27
[10] = SNU-5, antibody 80 ug/ml, Table 33
[11] = SNU-5, antibody 144 ug/ml, Table 27
[12] = SNU-5, antibody 160 ug/ml, Table 33
[13] = BGC-823, antibody 10 ug/ml, Table 27
[14] = BGC-823, antibody 10 ug/ml, Table 33
[15] = BGC-823, antibody 20 ug/ml, Table 27
[16] = BGC-823, antibody 20 ug/ml, Table 33
[17] = BGC-823, antibody 40 ug/ml, Table 27
[18] = BGC-823, antibody 40 ug/ml, Table 33
[19] = BGC-823, antibody 80 ug/ml, Table 27
[20] = BGC-823, antibody 80 ug/ml, Table 33
[21] = BGC-823, antibody 144 ug/ml, Table 27
[22] = BGC-823, antibody 160 ug/ml, Table 33
[23] = BEL7402 V13, antibody 10 ug/ml, Table 27
[24] = BEL7402 V13, antibody 10 ug/ml, Table 33
[25] = BEL7402 V13, antibody 20 ug/ml, Table 27
[26] = BEL7402 V13, antibody 20 ug/ml, Table 33
[27] = BEL7402 V13, antibody 40 ug/ml, Table 27
[28] = BEL7402 V13, antibody 40 ug/ml, Table 33
[29] = BEL7402 V13, antibody 80 ug/ml, Table 27
[30] = BEL7402 V13, antibody 80 ug/ml, Table 33
[31] = BEL7402 V13, antibody 144 ug/ml, Table 27
[32] = BEL7402 V13, antibody 160 ug/ml, Table 33

B1: Hetumomab: mouse monoclonal antibody (IgG1, κ) against human tumor stem cells, hybridoma CGMCC NO. 12251; VL SEQ ID NO:1, VH SEQ ID NO:5 (antibody, V domains shown)
VH: QVTLKESGPGILQPSQTLSLTCSFSGFSLSTSGMGVSWIRQPSGKGLEWLAHIYWDDDKRYNPSLKSRLTISKDSSNNQVFLKITSVDTADTATYYCARSFYYYANNSFAYWGQGTLVTVSS
VL: DIVMTQAAFSNPVTLGTSASISCRSSKSLLHSNGITYLYWFLQKPGQSPQLLIYQMSNLASGVPDRFSSSGSGTDFTLRISRVEAEDVGVYYCAQNLELYTFGGGTKLEIK
modifications: Hetumomab heavy chain variable region; Hetumomab light chain variable region
Western blot recognition of the antigen protein [1]: specifically bound to the antigen protein
Average number of formed spheres (SNU-5 sphere cells; [3]): 176.5
Inhibition Rate (%) (SNU-5 sphere cells; [3]): 15.6%
Average number of formed spheres (SNU-5 sphere cells; [4]): 212
Inhibition Rate (%) (SNU-5 sphere cells; [4]): 13.5%
Average number of formed spheres (SNU-5 sphere cells; [5]): 161
Inhibition Rate (%) (SNU-5 sphere cells; [5]): 23.0%
Average number of formed spheres (SNU-5 sphere cells; [6]): 190
Inhibition Rate (%) (SNU-5 sphere cells; [6]): 22.4%
Average number of formed spheres (SNU-5 sphere cells; [7]): 146
Inhibition Rate (%) (SNU-5 sphere cells; [7]): 30.1%
Average number of formed spheres (SNU-5 sphere cells; [8]): 164
Inhibition Rate (%) (SNU-5 sphere cells; [8]): 33.1%
Average number of formed spheres (SNU-5 sphere cells; [9]): 130
Inhibition Rate (%) (SNU-5 sphere cells; [9]): 37.8%
Average number of formed spheres (SNU-5 sphere cells; [10]): 147
Inhibition Rate (%) (SNU-5 sphere cells; [10]): 40.0%
Average number of formed spheres (SNU-5 sphere cells; [11]): 119
Inhibition Rate (%) (SNU-5 sphere cells; [11]): 43.1%
Average number of formed spheres (SNU-5 sphere cells; [12]): 115
Inhibition Rate (%) (SNU-5 sphere cells; [12]): 53.1%
Average number of formed spheres (MHCC-97L sphere cells; antibody 10 ug/ml, Table 27): 194
Inhibition Rate (%) (MHCC-97L sphere cells; antibody 10 ug/ml, Table 27): 16.4%
Average number of formed spheres (MHCC-97L sphere cells; antibody 10 ug/ml, Table 33): 204
Inhibition Rate (%) (MHCC-97L sphere cells; antibody 10 ug/ml, Table 33): 15.4%
Average number of formed spheres (MHCC-97L sphere cells; antibody 20 ug/ml, Table 27): 170
Inhibition Rate (%) (MHCC-97L sphere cells; antibody 20 ug/ml, Table 27): 26.7%
Average number of formed spheres (MHCC-97L sphere cells; antibody 20 ug/ml, Table 33): 178
Inhibition Rate (%) (MHCC-97L sphere cells; antibody 20 ug/ml, Table 33): 26.1%
Average number of formed spheres (MHCC-97L sphere cells; antibody 40 ug/ml, Table 27): 155
Inhibition Rate (%) (MHCC-97L sphere cells; antibody 40 ug/ml, Table 27): 33.2%
Average number of formed spheres (MHCC-97L sphere cells; antibody 40 ug/ml, Table 33): 155
Inhibition Rate (%) (MHCC-97L sphere cells; antibody 40 ug/ml, Table 33): 35.7%
Average number of formed spheres (MHCC-97L sphere cells; antibody 80 ug/ml, Table 27): 141
Inhibition Rate (%) (MHCC-97L sphere cells; antibody 80 ug/ml, Table 27): 39.2%
Average number of formed spheres (MHCC-97L sphere cells; antibody 80 ug/ml, Table 33): 141
Inhibition Rate (%) (MHCC-97L sphere cells; antibody 80 ug/ml, Table 33): 40.7%
Average number of formed spheres (MHCC-97L sphere cells; antibody 144 ug/ml, Table 27): 121.5
Inhibition Rate (%) (MHCC-97L sphere cells; antibody 144 ug/ml, Table 27): 47.6%
Average number of formed spheres (MHCC-97L sphere cells; antibody 160 ug/ml, Table 33): 115
Inhibition Rate (%) (MHCC-97L sphere cells; antibody 160 ug/ml, Table 33): 52.3%
Average number of formed spheres (BGC-823 sphere cells; [13]): 206
Inhibition Rate (%) (BGC-823 sphere cells; [13]): 13.1%
Average number of formed spheres (BGC-823 sphere cells; [14]): 211
Inhibition Rate (%) (BGC-823 sphere cells; [14]): 16.6%
Average number of formed spheres (BGC-823 sphere cells; [15]): 183
Inhibition Rate (%) (BGC-823 sphere cells; [15]): 22.8%
Average number of formed spheres (BGC-823 sphere cells; [16]): 190
Inhibition Rate (%) (BGC-823 sphere cells; [16]): 24.9%
Average number of formed spheres (BGC-823 sphere cells; [17]): 162
Inhibition Rate (%) (BGC-823 sphere cells; [17]): 31.6%
Average number of formed spheres (BGC-823 sphere cells; [18]): 176
Inhibition Rate (%) (BGC-823 sphere cells; [18]): 30.4%
Average number of formed spheres (BGC-823 sphere cells; [19]): 150
Inhibition Rate (%) (BGC-823 sphere cells; [19]): 36.7%
Average number of formed spheres (BGC-823 sphere cells; [20]): 156
Inhibition Rate (%) (BGC-823 sphere cells; [20]): 38.3%
Average number of formed spheres (BGC-823 sphere cells; [21]): 137.5
Inhibition Rate (%) (BGC-823 sphere cells; [21]): 42.0%
Average number of formed spheres (BGC-823 sphere cells; [22]): 130.5
Inhibition Rate (%) (BGC-823 sphere cells; [22]): 48.4%
Average number of formed spheres (Bel7402-V13 sphere cells; [23]): 193.5
Inhibition Rate (%) (Bel7402-V13 sphere cells; [23]): 14.8%
Average number of formed spheres (Bel7402-V13 sphere cells; [24]): 192.5
Inhibition Rate (%) (Bel7402-V13 sphere cells; [24]): 16.3%
Average number of formed spheres (Bel7402-V13 sphere cells; [25]): 171
Inhibition Rate (%) (Bel7402-V13 sphere cells; [25]): 24.7%
Average number of formed spheres (Bel7402-V13 sphere cells; [26]): 172
Inhibition Rate (%) (Bel7402-V13 sphere cells; [26]): 25.2%
Average number of formed spheres (Bel7402-V13 sphere cells; [27]): 142.5
Inhibition Rate (%) (Bel7402-V13 sphere cells; [27]): 37.2%
Average number of formed spheres (Bel7402-V13 sphere cells; [28]): 150
Inhibition Rate (%) (Bel7402-V13 sphere cells; [28]): 34.8%
Average number of formed spheres (Bel7402-V13 sphere cells; [29]): 126.5
Inhibition Rate (%) (Bel7402-V13 sphere cells; [29]): 44.3%
Average number of formed spheres (Bel7402-V13 sphere cells; [30]): 124.5
Inhibition Rate (%) (Bel7402-V13 sphere cells; [30]): 45.9%
Average number of formed spheres (Bel7402-V13 sphere cells; [31]): 106.5
Inhibition Rate (%) (Bel7402-V13 sphere cells; [31]): 53.1%
Average number of formed spheres (Bel7402-V13 sphere cells; [32]): 101
Inhibition Rate (%) (Bel7402-V13 sphere cells; [32]): 56.1%
inhibition ratio of sphere-formation (Bel7402-V13 sphere cells; Hetumomab 250 μg/mL vs PBS): 23.9%
number of spheres formed (Bel7402-V13 sphere cells; Hetumomab 250 μg/mL, 500 cells, 14 days): 212±2.8
staining of negative tissue sections ([2]; 3 negative sections, Example 8): failed to stain
staining of target antigen-positive tissue sections ([2]; 3 positive sections, Example 8): positively stain
staining of negative tissue sections ([2]; 10 negative sections, Example 11): did not stain
staining of target antigen-positive tissue sections ([2]; 10 positive sections, Example 11): positively stain
Fold Enrichment (MHCC97L cells; MHCC97L, Table 4): 2.18
ratio of positive cells, Cells from Sphere Culture (MHCC97L cells; MHCC97L, Table 4): 7.51%
ratio of positive cells, Parental Cells (MHCC97L cells; MHCC97L, Table 4): 3.45%
Fold Enrichment (MHCC97L cells; MHCC-97L, Table 26): 2.2
positive rate, Parental Cells (MHCC97L cells; MHCC-97L, Table 26): 7.38%
positive rate, Sphere Cells (MHCC97L cells; MHCC-97L, Table 26): 15.98%
Fold Enrichment (Bel7402-V13 cells; BEL7402 V13, Table 26): 1.6
positive rate, Parental Cells (Bel7402-V13 cells; BEL7402 V13, Table 26): 7.59%
positive rate, Sphere Cells (Bel7402-V13 cells; BEL7402 V13, Table 26): 12%
ratio of positive cells, Cells from Sphere Culture (Bel7402-V13 cells; Bel7402-V13, 5 days serum-free, Table 4): 8.92%
ratio of positive cells, Parental Cells (Bel7402-V13 cells; Bel7402-V13, Table 4): 2.25%
Fold Enrichment (Bel7402-V13 cells; Bel7402-V13, sphere vs parental, Table 4): 3.96
